Source: PubChem BioAssay AID1688 (National Center for Advancing Translational Sciences (NCATS), 2009)
The campaign covered roughly 220,000 compounds. About 2,400 (1.1%) were called active. Not shown: some 7% with an inconclusive outcome. Calls come from the whole dose curve; as a rule, active = well fitted inhibition curve with a large enough effect; inconclusive = small, poorly fitted or top-dose-only effect, or effect the other way; inactive = no such curve, though single readings can be large or run the other way. The list shows a part of the results, in another mix than the full data. The source holds several records for some structures; these can differ, active in one and inactive in another.

Assay: qHTS Multiplex Assay to Identify Dual Action Probes in a Cell Model of Huntington: Aggregate Formation (GFP); note: nearly all actives have a fitted effect of over 60% in size
Conditions: PC12 HttQ103-GFP aggregates, Acumen cytometry, 40 h; series mostly up to 46.1 µM; activity change, negative = inhibition: at the top concentration
Description: NIH Chemical Genomics Center [NCGC]
NIH Molecular Libraries Probe Production centers Network [MLPCN]
Assay Submitter (PI): Wei Zheng
Huntington's disease is a neurodegenerative disorder caused by a trinucleotide repeat expansion in Exon 1 of the Huntingtin gene. The CAG trinucleotide encodes glutamine and polyglutamine expansions cause cell death in selective areas of the brain. Huntington polyglutamine repeats have the tendency to form aggregates which are observable in later stages of the disease. The exact nature of the aggregates, whether toxic, protective, or insignificant, is unclear.
A stable PC12 cell line containing a gene fusion of Exon 1 of the Huntingtin gene linked to GFP under the control of the inducible ecdysone promoter were used as the cell-based model of Huntington Disease for high throughput screening. Exon 1 of the Huntingtin gene contained an expansion of 103 polyglutamines (Q103) which, when expressed, caused cell death and distinct, bright GFP aggregates. The amount of cell death and the size and intensity of GFP aggregates increased over time and induction level. The cell death were quantified with a measurement of ATP content in the cells. A maximal 40-50% of cell death was observed when the Huntington gene was induced in this cell line.
We optimized this assay in a homogeneous 1536 well format. A quantitative high throughput screen (qHTS) was conducted on the PC12 cells which were induced to express the toxic fusion construct. Small molecules which reduced aggregate formation were identified bu using a laser scanning cytometer calibrated to detect the aggregates in cell lysates.
PC12 cells stably containing a construct with an ecdysone inducible promoter expressing GFP fused to the exon 1 of HTTQ103 (Huntington protein which containing a 103 ployglutamine expansion) were used.
NCGC Assay Protocol Summary:
Sequence, Parameter, Description
1, Reagent, 5 uL 1500 cells/well 1536 TC treated White clear bottom plate
2, Compound, 23 nL Tebufenozide inducer (100 nM final) to all columns
3, Compound, 23 nL 40 uM to 0.5 nM Libraries
5, Reagent, 5 ul ATPLite cell death assay reagent
6, Detector, Aggregate quantitation by Acumen Explorer
Media consisted of phenol red free DMEM + 5% equine serum (Hyclone # SH30072.03 ), 5% supplemented Bovine Calf Serum (Hyclone # SH30074.03 ), 1x pen/strep, no G418
Acumen Explorer was used to quantitate GFP aggregates using the following criteria: […] laser excitation, 500-530 nm emission, the PMT was set at a voltage of 450 volts, and objects ranging in size of […] in size having a signal of 6 STDEV above background were collected.
Control columns: 1 = DMSO, 2= 2 uM teb dilns (1:1), 4 = 100 nM Teb inducer. Sample columns received 100 nM Teb.
% is set by controls: 0 for no effect and ±100 for the full control effect.

Row | SMILES | activity change, negative = inhibition | Potency
1 | O=C1/C(=C\c2ccco2)SC(=S)N1C1CCS(=O)(=O)C1 (stereo not given) | inactive: 6.27% [at 9.22 µM] | –
2 | CN(C)c1ccc2nc3ccc(=[N+](C)C)cc-3sc2c1 | inactive: -43.1% | –
3 | COc1ccc(/C=C/c2cc(-c3ccc(C)cc3)o[n+]2C)cc1 | – | active: 4.47 µM
4 | CN1CCc2cccc3c2[C@H]1Cc1ccc(O)c(O)c1-3 | inactive: 22.5% | –
5 | COC(=O)/C=C1\N/C(=N\c2nc(C)cc(C)n2)N(c2ccc(Cl)cc2)C1=O | inactive: -1.79% [at 9.22 µM] | –
6 | COC(C[C@@H]1O[C@H]1[C@@H](O)[C@@H](C)OCc1ccccc1)OC | inactive: 0.599% [at 9.22 µM] | –
7 | Cc1sc(N2C(=O)C3C(C2=O)[C@H]2C=C[C@@H]3C2)c(C#N)c1C (stereo not given in full) | inactive: -9.84% [at 9.22 µM] | –
8 | O=C(/C=C/c1ccccc1)Oc1cccc2cccnc12 | inactive: -27% [at 9.22 µM] | –
9 | COc1cc(/C=C2\S/C(=N/S(=O)(=O)c3ccccc3)NC2=O)c([N+](=O)[O-])cc1OC | inactive: 27.1% | –
10 | O=C(CCCc1cccs1)Nc1nc2c(s1)CCCC2 | – | active: 0.0282 µM
11 | COc1ccccc1N1CCN(CC(O)COc2cccc3ccccc23)CC1 (stereo not given) | inactive: -11.8% | –
12 | N#C/C(=N\O)c1nc(-c2ccccc2)cs1 | inactive: -17.2% | –
13 | O=C(c1nnsc1S(=O)(=O)c1ccc(Cl)cc1)N1CCOCC1 | – | active: 12.6 µM
14 | COC(C[C@@H]1O[C@H]1[C@H](O)COCc1ccccc1)OC | inactive: 41.9% [at 9.22 µM] | –
15 | COC(C[C@H]1O[C@H]1[C@@H](O)COCc1ccccc1)OC | inactive: -2.4% [at 9.22 µM] | –
16 | O=C(O)C/C=C(\NC(=O)OCc1ccccc1)C(=O)OCc1ccccc1 | inactive: -2.1% | –
17 | COc1cc(NCCCC(C)N)c2ncccc2c1 (stereo not given) | inactive: 4.99% | –
18 | CCC(=O)N1Cc2ccccc2-c2ccccc2C1=O | – | active: 5.62 µM
19 | COc1ccc(Cc2c(O)nc(SCC(=O)NC34CC5CC(CC(C5)C3)C4)[nH]c2=O)cc1 | inactive: -1.34% [at 9.22 µM] | –
20 | O=C(N/N=C/c1c(O)n(-c2ccccc2Cl)c(=O)c2ccccc12)C1COc2ccccc2O1 (stereo not given) | – | active: 12.6 µM
21 | CN1/C(=C/C=C(C#N)C#N)C(C)(C)c2ccccc21 | inactive: 16.6% [at 9.22 µM] | –
22 | O=C(NN1C(=O)/C(=C/c2cccnc2)SC1=S)C(c1ccccc1)c1ccccc1 | inactive: 4.2% | –
23 | O=C1C(Cl)=C(Nc2ccc3cn[nH]c3c2)C(=O)c2ccccc21 | – | active: 3.98 µM
24 | COc1ccc(CCn2c(C)cc(C(=O)CSc3nc(N)cc(=O)[nH]3)c2C)cc1 | – | active: 7.08 µM
25 | O=C1S/C(=C\c2ccc(N3CCOCC3)o2)C(=O)N1Cc1c(F)cccc1Cl | inactive: 21% | –
26 | Fc1ccc(CN(Cc2ccccc2)C(c2cccs2)c2nnnn2C2CCCCC2)cc1 (stereo not given) | – | active: 25.1 µM
27 | O=C(NCCc1ccccc1)c1oc2ccccc2c1COc1ccccc1 | – | active: 14.1 µM
28 | O=C(NCCCNc1ccc(C(F)(F)F)cc1[N+](=O)[O-])c1ccc(Cl)cc1 | – | active: 11.2 µM

Row | SMILES | activity change, negative = inhibition | Potency
29 | COc1cc(/C=C/C(=O)CC(=O)/C=C/c2ccc(O)c(OC)c2)ccc1O | inactive: 1.34% | –
30 | COc1ccccc1/C=C/C=N/NC(=O)c1ccco1 | inactive: 2.34% [at 9.22 µM] | –
31 | COC(C[C@H]1O[C@H]1[C@H](O)[C@H](C)OCc1ccccc1)OC | inactive: 4.79% [at 9.22 µM] | –
32 | COc1ccc(/C=C/C(=O)c2c(O)ccc3c(C)cc(=O)oc23)cc1 | inactive: -16.1% | –
33 | O=C(N/N=C/C(Br)=C\c1ccccc1)c1n[nH]c2c1CCC2 | inactive: 57.2% | –
34 | Cc1ccc(C(=O)N/C(=C/C=C\c2ccccc2)C(=O)NCc2ccco2)cc1 | inactive: 0.751% | –
35 | O=C(NCc1ccc2c(c1)OCO2)c1ccc(COc2cccc(Cl)c2)o1 | – | active: 28.2 µM
36 | CCO[C@H]1OC(C(=O)NC2CC2)=C[C@@H](c2c[nH]c3ccccc23)[C@@H]1CCCO | inactive: -25.1% [at 9.22 µM] | –
37 | C/C=C(/C)C(=O)OC1c2c(ccc3ccc(=O)oc23)OC(C)(C)C1OC(=O)/C(C)=C\C (stereo not given) | inactive: 22.6% [at 9.22 µM] | –
38 | COC(C[C@H]1O[C@H]1[C@H](O)COCc1ccccc1)OC | inactive: -44.3% [at 9.22 µM] | –
39 | CC(NO)C(C)(C)NO (stereo not given) | inactive: 9.92% | –
40 | O=C(O)CCn1cc(/C=C/C(=O)c2ccc(Cl)cc2)c(-c2cccc(Br)c2)n1 | inactive: -3.24% [at 9.22 µM] | –
41 | CCc1ccc(/C=c2\s/c(=C\C(=O)C(C)(C)C)[nH]c2=O)cc1 | – | active: 14.1 µM
42 | COC(C[C@H]1O[C@@H]1[C@@H](O)COCc1ccccc1)OC | inactive: 15% [at 9.22 µM] | –
43 | CC(=O)Nc1nc(C)c(-c2csc(Nc3ccccn3)n2)s1 | inactive: -29.7% [at 9.22 µM] | –
44 | N=C(N)SCc1nc2ccccc2c(=O)n1-c1ccccc1 | inactive: 26% | –
45 | C[C@@H]1CCC[C@H](C)N1NC(=O)c1ccc(Cl)c(S(N)(=O)=O)c1 | – | inactive
46 | O=c1c2c(nc3c(-c4cccc(Br)c4)c[nH]n13)CCCC2 | – | active: 3.55 µM
47 | CC#C[C@]1(O)CC[C@H]2[C@@H]3CCC4=CC(=O)CCC4=C3[C@@H](c3ccc(N(C)C)cc3)C[C@@]21C | inactive: -66.6% | –
48 | Cc1ccc(F)c(C2C3C=CCC(c4cccc(-c5ccc(N(C)C)cc5)c4)C3C(=O)N2Cc2ccccc2)c1 (stereo not given) | – | active: 3.16 µM
49 | COC(=O)/C=C1\N/C(=N\c2nc(C)cc(C)n2)N(c2ccccc2)C1=O | inactive: 23.6% [at 9.22 µM] | –
50 | CC(C)(C)[C@]1(O)CCN2CC3c4ccccc4CCc4cccc(c43)[C@@H]2C1 (stereo not given in full) | inactive: -17.7% | –
51 | COc1ccc(-c2nn(-c3ccccc3)cc2/C=C(\C#N)C(N)=O)cc1[N+](=O)[O-] | inactive: 17.3% | –
52 | CCOC(=O)N1CCN(C(=O)/C(=C/c2cccs2)NC(=O)c2cccs2)CC1 | inactive: -0.565% [at 9.22 µM] | –
53 | Cc1ccc(-c2nn(-c3ccccc3)cc2/C=N/NC(=O)c2ccc(Br)o2)cc1 | – | active: 7.08 µM
54 | COC(C[C@@H]1O[C@@H]1[C@@H](O)[C@@H](C)OCc1ccccc1)OC | inactive: -7.78% [at 9.22 µM] | –
55 | CN1CCN2c3ccccc3Cc3ccccc3C2C1 (stereo not given) | inactive: -15.3% | –
